{"source": "PubChem BioAssay AID2528", "about": "(National Center for Advancing Translational Sciences (NCATS), 2010)", "note": "Values joined by “and” are separate entries in the source; they are usually repeats but may differ in a detail not shown here. Equal entries are not always repeated. Out of some 350,000 compounds screened, about 700 (0.2%) were called active. This list was built around the results that the source calls inconclusive (neither active nor inactive); the mix of calls is not that of the screen. The call rests on the fitted dose curve; in most records, active means well fitted inhibition curve with a large enough effect; inconclusive means small, poorly fitted or top-dose-only effect; inactive means flat fitted curve, though single readings scatter. Potencies beside an inconclusive call are fits to weak or partial responses and may not hold up. Potency means the concentration at half of the fitted maximal effect; tags describe the fitted curve by direction and shape."}
{"target": "RecQ-like DNA helicase BLM (Homo sapiens) (UniProt P54132)", "sequence (P54132 whole entry, looked up)": "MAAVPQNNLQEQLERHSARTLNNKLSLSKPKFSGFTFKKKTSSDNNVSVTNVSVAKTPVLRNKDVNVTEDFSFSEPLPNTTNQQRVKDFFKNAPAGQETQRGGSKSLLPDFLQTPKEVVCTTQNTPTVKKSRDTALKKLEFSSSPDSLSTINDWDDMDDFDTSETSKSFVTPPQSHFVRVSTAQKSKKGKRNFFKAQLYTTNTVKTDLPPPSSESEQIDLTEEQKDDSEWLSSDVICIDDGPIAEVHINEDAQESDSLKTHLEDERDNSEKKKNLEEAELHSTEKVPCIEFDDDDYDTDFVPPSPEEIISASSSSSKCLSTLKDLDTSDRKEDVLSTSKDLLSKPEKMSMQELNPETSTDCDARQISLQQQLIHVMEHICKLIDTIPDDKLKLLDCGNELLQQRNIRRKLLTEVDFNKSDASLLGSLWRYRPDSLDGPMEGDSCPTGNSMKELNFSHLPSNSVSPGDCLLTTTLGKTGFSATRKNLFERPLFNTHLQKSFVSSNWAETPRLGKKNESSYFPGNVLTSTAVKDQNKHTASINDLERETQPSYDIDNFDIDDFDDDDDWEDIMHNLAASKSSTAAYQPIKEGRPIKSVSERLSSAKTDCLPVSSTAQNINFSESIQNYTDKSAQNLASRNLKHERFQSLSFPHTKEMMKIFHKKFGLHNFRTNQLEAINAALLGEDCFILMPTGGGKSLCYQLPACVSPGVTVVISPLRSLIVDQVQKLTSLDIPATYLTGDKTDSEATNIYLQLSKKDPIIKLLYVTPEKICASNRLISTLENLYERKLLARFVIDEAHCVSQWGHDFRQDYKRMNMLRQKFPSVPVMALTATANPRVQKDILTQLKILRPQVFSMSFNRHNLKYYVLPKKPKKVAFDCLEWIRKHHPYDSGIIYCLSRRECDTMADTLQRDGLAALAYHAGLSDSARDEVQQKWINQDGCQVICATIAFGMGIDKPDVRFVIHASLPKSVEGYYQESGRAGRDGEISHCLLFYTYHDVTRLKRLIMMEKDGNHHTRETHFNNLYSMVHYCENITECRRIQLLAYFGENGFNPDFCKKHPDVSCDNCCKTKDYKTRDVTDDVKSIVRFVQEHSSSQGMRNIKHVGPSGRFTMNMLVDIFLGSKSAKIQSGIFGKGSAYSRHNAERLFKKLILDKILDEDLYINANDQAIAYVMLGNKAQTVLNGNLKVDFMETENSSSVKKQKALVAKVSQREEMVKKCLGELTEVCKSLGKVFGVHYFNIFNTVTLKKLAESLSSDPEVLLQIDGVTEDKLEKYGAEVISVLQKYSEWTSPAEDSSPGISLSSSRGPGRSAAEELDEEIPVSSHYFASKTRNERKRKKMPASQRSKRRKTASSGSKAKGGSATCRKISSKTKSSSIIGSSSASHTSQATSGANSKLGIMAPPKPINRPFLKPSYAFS", "test": "qHTS Assay for Inhibitors of Bloom's syndrome helicase (BLM); further: nearly all actives have a fitted effect of over 35% in size;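 on activity change, negative = inhibition: plate controls were vehicle for no effect and no enzyme for full effect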", "conditions": "recombinant BLM DNA unwinding, fluorescence dequenching; series mostly up to 56.1 µM; activity change, negative = inhibition: at the top concentration"}
{"molecule": "COc1ccc(-c2nn(-c3ccccc3)cc2/C=C2/SC(=S)N(CCC(=O)O)C2=O)c(C)c1", "Potency": "inconclusive: 25.1 µM [inhibitor, single point]"}
{"molecule": "CC1(OC(=O)CCc2ccccc2)C(=O)C=C2C=C3CCCN3C=C2C1=O", "note": "(stereo unspecified)", "Potency": "inconclusive: 11.2 µM [inhibitor, partial curve] and inconclusive: 3.16 µM [inhibitor, single point]"}
{"molecule": "CC1=C(C(N)=O)C(c2ccc(C)cc2)n2nc(SCc3ccccc3)nc2N1", "note": "(stereo unspecified)", "activity change, negative = inhibition": "inactive: -1.72%"}
{"molecule": "C#CCOCCOCCOCCNc1nc(N2CCN(C(=O)C(Cc3cc4ccccc4[nH]3)n3cc(C(N)Cc4ccc(O)cc4)nn3)CC2)nc(N2CCN(C(=O)C(Cc3cc4ccccc4[nH]3)n3cc(C(N)Cc4ccc(O)cc4)nn3)CC2)n1", "note": "(stereo unspecified)", "Potency": "inconclusive: 39.8 µM [inhibitor, single point]"}
{"molecule": "Clc1ccc(N2N=C(c3cccs3)CC2c2ccco2)cc1", "note": "(stereo unspecified)", "activity change, negative = inhibition": "inactive: -10.8%"}
{"molecule": "COc1ccc(Cc2nc3ccccc3n2CC(=O)N/N=C/c2ccc(C)cc2O)cc1OC", "Potency": "active: 10 µM"}
{"molecule": "C=CCn1c(O)c(N=NC(=O)CNC(=O)/C=C/c2ccco2)c2ccccc21", "Potency": "inconclusive: 12.6 µM [inhibitor, partial curve]"}
{"molecule": "O=C1/C(=C\\c2cc([N+](=O)[O-])ccc2O)SC(=S)N1Cc1ccc(Cl)cc1", "Potency": "active: 31.6 µM"}
{"molecule": "CC(=O)Nc1ccc(NC2=C/C(=N/S(=O)(=O)c3cccs3)c3ccccc3C2=O)cc1", "Potency": "active: 22.4 µM"}
{"molecule": "CC(=O)Nc1cc(C(=O)NCc2ccccc2)ccc1Sc1ccc(C)cc1", "Potency": "inconclusive: 28.2 µM [inhibitor, single point]"}
{"molecule": "Cc1ccc2nc(Cl)c(C3CC(c4cccs4)=NN3C(=O)CCCC(=O)O)cc2c1", "note": "(stereo unspecified)", "Potency": "inconclusive: 22.4 µM [inhibitor, single point]"}
{"molecule": "O=C(Nc1ccccc1)c1ccc2nc(-c3ccco3)c(-c3ccco3)nc2c1", "Potency": "active: 31.6 µM"}
{"molecule": "Cc1c(N=C/C=C/c2ccccc2)cnn1C", "Potency": "inconclusive: 39.8 µM [inhibitor, single point]"}
{"molecule": "O=C(O)CCCCCN1C(=O)/C(=C\\c2cn(-c3ccccc3)nc2-c2cccs2)SC1=S", "Potency": "active: 15.8 µM"}
{"molecule": "CCOC(=O)C1=C(c2ccccc2)N=c2s/c(=C\\c3ccco3)c(=O)n2C1c1cccs1", "note": "(stereo unspecified)", "Potency": "inconclusive: 10 µM [inhibitor, partial curve]"}
{"molecule": "Cc1nc2cc(-c3ccsc3-n3c(C)ccc3C)[nH]n2c(=O)c1Cl", "Potency": "active: 15.8 µM"}
{"molecule": "Cc1ccc(NC2=C(Cl)C(=O)OC2OC(=O)c2ccco2)cc1C", "note": "(stereo unspecified)", "activity change, negative = inhibition": "inactive: -0.094%"}
{"molecule": "O=C(O)c1ccc(S(=O)(=O)/N=C2\\C=C(Nc3ccccc3F)C(=O)c3ccccc32)cc1", "Potency": "active: 8.91 µM"}
{"molecule": "CCOc1ccccc1-c1c2cc(O)c(=O)cc-2oc2cc(O)c(O)cc12", "Potency": "active: 10 µM"}
{"molecule": "COc1ccccc1Nc1nn2c(=O)c3ccc(C(=O)NCc4cccnc4)cc3nc2s1", "Potency": "inconclusive: 7.94 µM [inhibitor, partial curve]"}
{"molecule": "O=C(CSc1ccsc1[N+](=O)[O-])Nc1cc(F)ccc1F", "Potency": "inconclusive: 25.1 µM [inhibitor, partial curve]"}
{"molecule": "Cc1cccc(NC(=O)CSc2nnc(-c3ccco3)c(-c3ccco3)n2)c1", "Potency": "inconclusive: 31.6 µM [inhibitor, partial curve]"}
{"molecule": "Cc1cccn2c(=O)c3cc(C#N)c(=NC(=O)c4ccco4)n(Cc4ccco4)c3nc12", "Potency": "inconclusive: 17.8 µM [inhibitor, partial curve]"}
{"molecule": "O=C(NC1(O)C(=O)c2ccccc2C1=O)c1ccc(C(F)(F)F)cc1", "Potency": "inconclusive: 39.8 µM [inhibitor, single point]"}
{"molecule": "Cc1ccc(-c2nnn(CC(=O)N(Cc3cccs3)C(C(=O)NC3CCCC3)c3ccncc3)n2)cc1", "note": "(stereo unspecified)", "Potency": "inconclusive: 17.8 µM [inhibitor, partial curve]"}
{"molecule": "Cc1ccc2nc(NNC(=O)c3ccc(S(=O)(=O)N4CCc5ccccc5C4)cc3)sc2c1", "Potency": "inconclusive: 35.5 µM [inhibitor, single point]"}
{"molecule": "COc1ccc(C2=Nn3c(nnc3-c3cccc(OC)c3)SC2)cc1", "activity change, negative = inhibition": "inactive: 1.1%"}
{"molecule": "C#CCN1C(=O)S/C(=C/C=C/c2ccc(N(C)C)cc2)C1=O", "Potency": "inconclusive: 39.8 µM [inhibitor, single point]"}
{"molecule": "COc1cc(/C=N/N=C2/NC(=O)C(CC(=O)O)S2)ccc1OCc1ccc(Cl)cc1", "note": "(stereo unspecified)", "activity change, negative = inhibition": "inactive: 4.14%"}
{"molecule": "O=C(N/N=C/c1ccc2c(c1)OCO2)c1ccc(Br)o1", "Potency": "inconclusive: 31.6 µM [inhibitor, single point]"}
{"molecule": "COc1ccc(CNc2ncnc3ccc(-c4ccccc4C#N)cc23)c(OC)c1", "activity change, negative = inhibition": "inactive: -6.88%"}
{"molecule": "Cc1c(OCc2nn[nH]n2)ccc2c(-c3ccccc3)cc(=O)oc12", "Potency": "inconclusive: 31.6 µM [inhibitor, single point]"}
{"molecule": "CCOc1ccc2[nH]c(=O)c(C(c3nnnn3Cc3ccco3)N3CCN(C)CC3)cc2c1", "note": "(stereo unspecified)", "Potency": "active: 1.12 µM"}
{"molecule": "Cc1ccc(-c2nc(NC(=O)CSc3cc(C)c4ccccc4n3)ns2)cc1", "Potency": "active: 6.31 µM"}
{"molecule": "c1cc2cn[nH]c2cc1NC1CCCCCC1", "Potency": "inconclusive: 39.8 µM [inhibitor, single point]"}
{"molecule": "COc1ccc(/C=C2\\C(=O)NC(=S)N2C(=O)c2ccc(F)cc2)cc1", "Potency": "inconclusive: 35.5 µM [inhibitor, single point]"}
{"molecule": "COc1ccc2c(C(=O)CN3CCSCC3)c[nH]c2c1", "activity change, negative = inhibition": "inactive: 1.85%"}
{"molecule": "COc1ccc(-c2nc3c(c4c2C[C@H](c2ccccc2)OC4)CN(S(=O)(=O)c2ccc(C)cc2)CC3)c(C)c1", "activity change, negative = inhibition": "inactive: -5.25% [at 12.4 µM]"}
{"molecule": "CCc1ccccc1NS(=O)(=O)c1ccc2c(c1)CC(=O)N2", "activity change, negative = inhibition": "inactive: -6.93%"}
{"molecule": "COc1ccc(Cn2c(O)c(C=Nc3ccccc3C(=O)O)c3ccccc3c2=O)cc1", "Potency": "inconclusive: 20 µM [inhibitor, partial curve]"}
{"molecule": "CN(C)c1ccc(CNC(=O)CN2CCSc3ccc(S(=O)(=O)N(C)C)cc32)cc1", "activity change, negative = inhibition": "inactive: 1.04%"}
{"molecule": "COc1cccc(OCCOc2ccc(/C=C3/SC(=S)NC3=O)cc2)c1", "Potency": "inconclusive: 14.1 µM [inhibitor, partial curve]"}
{"molecule": "Cc1cc(OCC(=O)Nc2cc(-c3nc4ncccc4o3)ccc2C)ccc1Cl", "Potency": "active: 28.2 µM"}
{"molecule": "COc1ccc(-c2nc3ccccc3s2)cc1NC(=O)c1ccccc1F", "Potency": "inconclusive: 17.8 µM [inhibitor, partial curve]"}
{"molecule": "Cc1cc(N)c2cc(NC(=O)Nc3ccc4nc(C)cc(N)c4c3)ccc2n1", "Potency": "inconclusive: 14.1 µM [inhibitor, single point]"}
{"molecule": "O=C(O)C(O)c1ccco1", "note": "(stereo unspecified)", "Potency": "inconclusive: 39.8 µM [inhibitor, single point]"}
{"molecule": "Oc1c(Br)cc(/C=N/n2c(-c3ccccc3)n[nH]c2=S)c(O)c1Br", "activity change, negative = inhibition": "inactive: -4.86%"}
{"molecule": "O=C(Cn1c2ccccc2c(=O)c2ccccc21)N/N=C/c1cc([N+](=O)[O-])ccc1N1CCCCCC1", "Potency": "inconclusive: 6.31 µM [inhibitor, partial curve]"}
{"molecule": "CC1=C(C)C(=O)N(c2ccccn2)C1=O", "activity change, negative = inhibition": "inactive: 0.893%"}
{"molecule": "Cc1ccsc1C=Nc1ccc(O)cc1", "Potency": "inconclusive: 31.6 µM [inhibitor, single point]"}
{"molecule": "O=C(COC(=O)C1CC2C=CC1C2)NCc1ccco1", "note": "(stereo unspecified)", "Potency": "inconclusive: 31.6 µM [inhibitor, single point]"}
{"molecule": "O=C1C=C(Nc2ccccc2)c2ccccc2C1=O", "Potency": "inconclusive: 35.5 µM [inhibitor, single point]"}
{"molecule": "CCOc1cccc(CNc2ccc(O)cc2)c1OCc1ccccc1Cl", "Potency": "inconclusive: 35.5 µM [inhibitor, partial curve]"}
{"molecule": "Cc1ccccc1OCC(=O)N/N=C1\\SCC(=O)N1Cc1ccccc1", "Potency": "inconclusive: 35.5 µM [inhibitor, single point]"}
{"molecule": "COc1ccc(C(=O)Nc2ccc(OCc3cc(=O)n4ccccc4n3)cc2)cc1", "activity change, negative = inhibition": "inactive: -4%"}
{"molecule": "C=C(CCC12O[C@H](C(=O)O)[C@@](O)(C(=O)O)[C@](C(=O)O)(O1)[C@H](OC(=O)/C=C/[C@@H](C)C[C@@H](C)CC)[C@H]2O)[C@@H](OC(C)=O)[C@H](C)Cc1ccccc1", "Potency": "active: 22.4 µM"}
{"molecule": "COc1cc(-c2ccc(N=Nc3ccc4c(S(=O)(=O)O)cc(S(=O)(=O)O)c(N)c4c3O)c(OC)c2)ccc1N=Nc1ccc2c(S(=O)(=O)O)cc(S(=O)(=O)O)c(N)c2c1O", "Potency": "inconclusive: 20 µM [inhibitor, full curve, poor fit]"}
{"molecule": "N#C/C(=C\\Nc1ccc2cn[nH]c2c1)c1nc(-c2ccccc2)cs1", "activity change, negative = inhibition": "inactive: -11.1%"}
{"molecule": "C=C(C)C(=O)Nc1ccc2c(c1)OCCOCCOCCO2", "Potency": "inconclusive: 8.91 µM [inhibitor, full curve, poor fit]"}
{"molecule": "COc1ccc2c(c1)CCc1c(C(=O)N(C)c3ccccc3)noc1-2", "activity change, negative = inhibition": "inactive: -3.22%"}
{"molecule": "Cc1cnc(C(=O)OCC(=O)c2csc(N3CCCCC3)n2)cn1", "Potency": "inconclusive: 39.8 µM [inhibitor, single point]"}
{"molecule": "N#C/C(=C\\c1cc(O)c(O)c(O)c1)C(N)=O", "Potency": "inconclusive: 28.2 µM [inhibitor, single point]"}
{"molecule": "NC(=O)Cn1c(=O)n(Cc2ccco2)c(=O)c2c3c(sc21)CCCCC3", "Potency": "inconclusive: 14.1 µM [inhibitor, partial curve]"}
{"molecule": "COC(=O)c1ccc(C)c(NC(=O)CSc2sc3c(O)cc(=O)[nH]c3c2C#N)c1", "Potency": "inconclusive: 25.1 µM [inhibitor, partial curve]"}
{"molecule": "COc1ccccc1/C=C/C(=O)NCC(=O)N/N=C/c1ccc2c(c1)OCO2", "Potency": "inconclusive: 39.8 µM [inhibitor, single point]"}
{"molecule": "O=C(c1ccco1)N(CCC(c1ccccc1)c1ccco1)Cc1ccco1", "note": "(stereo unspecified)", "Potency": "inconclusive: 20 µM [inhibitor, partial curve]"}
